# Hit rate of the full screen: of about 310,000 compounds, about 11,000 (3.5%) were called active. The shares of active, inactive and inconclusive entries below differ from those in the screen. The call rests on the fitted dose curve; in most records, active means well fitted inhibition curve with a large enough effect; inconclusive means small, poorly fitted or top-dose-only effect, or effect the other way; inactive means flat fitted curve, though single readings scatter. Potencies of inconclusive entries are left out as doubtful fits.
# Assay: VP16 counterscreen qHTS for inhibitors of ROR gamma transcriptional activity;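 further: Gal4-VP16 expression switched on by copper sulfate through the metallothionein promoter; nearly all actives have a fitted effect of over 50% in size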
# Conditions: Drosophila S2 Gal4-VP16 UAS-luciferase, luminescence, 20 h; activity, negative = inhibition: at 53.6 µM (top of the series)
# On the % scale 0 is the no-effect control and ±100 the full control effect; potency means the concentration at half of the fitted maximal effect; tags describe the fitted curve by direction and shape.
Compound,Potency,"activity, negative = inhibition"
CCCCOc1ccc(S(=O)(=O)n2c(C)nc3ccccc32)cc1,"inconclusive [inhibitor, single point]",–
Cc1cc(C)cc(-n2nnnc2SCC(=O)Nc2nc(-c3ccc(Cl)cc3)cs2)c1,"inconclusive [inhibitor, partial curve]",–
O=C(c1ccco1)N1CCN(C(=O)C(Sc2ccccc2)c2ccccc2)CC1 (configuration not stated),–,inactive: -13.1%
CCCN1C(=O)c2ccc(C(=O)NC3CCCCC3)cc2C1=O,"inconclusive [activator, full curve, poor fit]",–
COc1ccc(C(O)c2nc3ccccc3n2C(C)C)cc1 (configuration not stated),–,inactive: -7.18%
Cc1cc(C)cc(C(=O)Nc2nc3ccccc3[nH]2)c1,active: 10 µM,–
O=C(Nc1nc2ccc(SC(F)F)cc2s1)c1ccc(NS(=O)(=O)c2ccc(F)c(F)c2)cc1,"inconclusive [inhibitor, single point]",–
CC(C)(C)c1cc(C(F)(F)F)nc(SCCCNC(=O)c2ccco2)n1,"inconclusive [inhibitor, single point]",–
CC(=O)SC(C[N+](=O)[O-])c1cn(C(C)=O)c2ccccc12 (configuration not stated),"inconclusive [inhibitor, single point]",–
Cc1ccc(-n2cc(-c3ccc([N+](=O)[O-])cc3)[nH]c2=S)c(C)c1,active: 6.31 µM,–
O=C(C1=C[C@@H](c2coc3ccccc3c2=O)C[C@@H](OCCCCO)O1)N1CCN(Cc2ccc3c(c2)OCO3)CC1,"inconclusive [inhibitor, partial curve]",–
O=C(Cn1cnc2ccccc2c1=O)NCCC(=O)Nc1ccc(F)cc1,–,inactive: -3.11%
CCc1cccc2c(C#N)cn(CCOc3ccccc3OC)c12,"inconclusive [inhibitor, single point]",–
COc1cccc2oc(-c3ccc(O)cc3)cc(=O)c12,"inconclusive [inhibitor, partial curve, poor fit]",–
CCOC(=O)C1CCN(c2ncnc3c2cnn3-c2ccc(Cl)cc2)CC1,"inconclusive [inhibitor, partial curve]",–
CCOc1ccc(-n2c(CCc3ccccc3)n[nH]c2=S)cc1,"inconclusive [inhibitor, partial curve]",–
O=c1c2cc(N3CCOCC3)ccc2[nH]c(=S)n1Cc1cccc(Cl)c1,active: 5.62 µM,–
CCCCC(CC)c1nnc(NC(=O)c2cccs2)s1 (configuration not stated),"inconclusive [inhibitor, single point]",–
O=C(CSc1ccc(C(F)(F)F)cc1[N+](=O)[O-])Nc1ccc2ccccc2c1,"inconclusive [inhibitor, single point]",–
CSCCC(NS(=O)(=O)c1ccccc1F)C(=O)N1CCCCCCC1 (configuration not stated),–,inactive: -8.23%
Cc1nc2oc3ccc(Cl)cc3c(=O)c2cc1C(=O)O,"inconclusive [inhibitor, partial curve]",–
Cc1cccc(CSc2ccc(-c3ccco3)nn2)c1,"inconclusive [activator, single point]",–
Cc1cc(=O)[nH]c2c(N=Nc3ccc(O)cc3)c(N)nn12,"inconclusive [inhibitor, single point]",–
O=C(/C=C/c1ccc(Cl)cc1Cl)c1cccnc1,active: 6.31 µM,–

Compound,Potency,"activity, negative = inhibition"
Cc1ccc(-n2c(-c3ccc(Cl)cc3Cl)n[nH]c2=S)cc1,active: 5.01 µM,–
COc1ccc(-n2c(-c3ccc(Br)cc3)c[n+]3c2CCc2ccccc2-3)cc1,active: 6.31 µM,–
CC(C)(C)NNC(=S)Nc1cccc(F)c1,active: 3.55 µM,–
CCCCNC(=O)CCCCC(=O)N/N=C/c1cccc(Cl)c1,"inconclusive [inhibitor, single point]",–
O=C(N/N=C/c1ccccc1F)NC1CCCCC1,–,inactive: -3.57%
O=C1N/C(=N\N=C\c2ccco2)SC1Cc1ccccc1[N+](=O)[O-] (configuration not stated),active: 5.01 µM,–
COc1ccc2cc(/C=N/NC(=O)c3ccc(CN(c4cccc(Cl)c4Cl)S(C)(=O)=O)cc3)c(Cl)nc2c1,"inconclusive [activator, single point]",–
CCCc1cc(=O)oc2cc(OCC(=O)Nc3ccc(CN4CCOCC4)cc3)c(Cl)cc12,–,inactive: -13%
Cc1c(-c2ccccc2)sc2nc[nH]c(=S)c12,active: 1 µM,–
CN1C(=O)/C(=C/c2ccc3c(c2)OCO3)N=C1c1ccccc1,"inconclusive [inhibitor, partial curve]",–
COc1cccc(CNC(=O)CCCCCn2c(=S)[nH]c3ccc(N4CCOCC4)cc3c2=O)c1,–,inactive: -18.1%
COc1cc(/C=N/NC(=O)C(=O)/C=C2\NC3(CCCC3)Cc3ccccc32)ccc1O,"inconclusive [inhibitor, single point]",–
CN1CCN(c2ccnc(-c3cccc(NS(C)(=O)=O)c3)n2)CC1,–,inactive: -5.65%
Cc1nc2cc(NC(=O)c3ccc(S(=O)(=O)N(C)c4ccccc4)cc3)ccc2o1,"inconclusive [inhibitor, single point]",–
Cc1cc(Cl)ccc1OCc1nc(-c2ccc(O)cc2)n[nH]1,active: 4.47 µM,–
CCOc1ccc(OCC)c(S(=O)(=O)NCc2ccccc2)c1,–,inactive: 5.49%
S=c1[nH]nc(-c2ccco2)n1C1CCCCC1,"inconclusive [inhibitor, single point]",–
O=C(COC(=O)c1cn(-c2ccccc2)nc1-c1ccc(F)cc1)Nc1ncc(Cl)cc1Cl,"inconclusive [inhibitor, single point]",–
CCNC(=S)Nc1sc2c(c1C#N)CCC(C)C2 (configuration not stated),"inconclusive [inhibitor, single point]",–
COc1ccc(/C=N/OCC(=O)N=Nc2c(O)[nH]c3ccc(Br)cc23)cc1OC,"inconclusive [inhibitor, single point]",–
COc1ccc(NCc2nnc(SCC(=O)Nc3nc(-c4ccccc4)cs3)n2-c2ccccc2)cc1,active: 5.01 µM,–
C=CCc1ccccc1OCCSc1nc2ccc([N+](=O)[O-])cc2s1,"inconclusive [inhibitor, single point]",–
CCOC(=O)C(NC(C)=O)C(=O)Nc1ccc(C(C)(C)C)cc1 (configuration not stated),–,inactive: -7.84% [at 10 µM]
COc1ccccc1Cn1c(=S)[nH]c2ccccc2c1=O,active: 14.1 µM,–

Compound,Potency,"activity, negative = inhibition"
Cc1ccc(/C=N\Nc2nc3ccc(Cl)cc3[nH]2)o1,active: 12.6 µM,–
CC1CCc2nn(CC(=O)NCc3ccco3)cc2C1 (configuration not stated),"inconclusive [activator, single point]",–
CC(=O)c1ccc(-c2ccc(C3C4C=CCCC4(C)C(=O)N3Cc3ccccc3)c(F)c2)cc1 (configuration not stated),–,inactive: -9.17%
O=C(NC(=S)Nc1ccccc1O)c1cccnc1,"inconclusive [inhibitor, single point]",–
Cc1ccc(C(=O)c2oc3ccccc3c2NC(=O)c2cc(-c3ccccc3O)n[nH]2)cc1,"inconclusive [inhibitor, single point]",–
Cc1ccc(-c2cc(C(=O)N/N=C/C=C/c3ccco3)c3ccccc3n2)cc1C,active: 4.47 µM,–
C#Cc1ccc(CN2CCC(C(=O)Nc3ccc(Oc4ccccc4)nc3)CC2)cc1,"inconclusive [inhibitor, single point]",–
CCN(C(=O)CN1C(=O)COc2ccc(S(=O)(=O)N3CCOCC3)cc21)c1ccc(OC)cc1,–,inactive: 3.71%
CN(C)S(=O)(=O)c1ccc(Cl)c(C(=O)Nc2ccccc2[N+](=O)[O-])c1,–,inactive: -5.01%
O=C(CCCc1nc(-c2ccc(Cl)cc2)no1)Nc1cccnc1,active: 11.2 µM,–
N#C/C(=C\Nc1ccc2c(c1)OCCO2)c1nc2ccccc2[nH]1,active: 5.01 µM,–
CN(C)c1ccc(C(=O)Nc2nnc(-c3ccc(Cl)cc3)o2)cc1,active: 0.501 µM,–
CN(C)CC(=O)Nc1nc(-c2ccccc2)cs1,"inconclusive [inhibitor, single point]",–
Cc1cc(-c2nnc(CSc3nnc(NC(=O)c4ccc(C(C)(C)C)cc4)s3)o2)ccc1[N+](=O)[O-],–,inactive: 4.06%
C[C@H](NC(=O)c1nc[nH]c1C(=O)NCC(=O)OC(C)(C)C)C(=O)OC(C)(C)C,"inconclusive [inhibitor, single point]",–
O=C(N/N=C/c1cccc(Oc2ccccc2)c1)c1ccncc1,"inconclusive [inhibitor, single point]",–
Cc1ccc(S(=O)(=O)c2ccc(-n3nc(C)cc3N)cc2)cc1,–,inactive: -6.91%
Nc1ccc(Cl)cc1C(=O)OCC(=O)NC1CCS(=O)(=O)C1 (configuration not stated),"inconclusive [inhibitor, partial curve]",–
CCC(C)(C)C(=O)O[C@@H]1C[C@@H](C)C=C2C=C[C@H](C)[C@H](CC[C@@H]3C[C@@H](O)CC(=O)O3)[C@H]21,"inconclusive [inhibitor, single point]",–
Nc1nc2ccc(-c3nc4ccccc4o3)cc2s1,"inconclusive [activator, single point]",–
CSc1cccc(NC(=O)c2cnn3ccccc23)c1,"inconclusive [activator, full curve, poor fit]",–
COc1cccc(-n2c(SC3CCOC3=O)nc3ccccc3c2=O)c1 (configuration not stated),"inconclusive [activator, single point]",–
Cn1c(CSCc2ccc(F)cc2)n[nH]c1=S,"inconclusive [inhibitor, single point]",–
NC(=O)CC(NC(=O)Cc1cccc2ccccc12)c1ccc(NCCOc2ccccc2)c([N+](=O)[O-])c1 (configuration not stated),"inconclusive [inhibitor, single point]",–
